# Measurements published in PubChem BioAssay AID1476 (National Center for Advancing Translational Sciences (NCATS), 2009).
# The campaign covered roughly 200,000 compounds. About 4,500 (2.2%) were called active. The shares of active, inactive and inconclusive entries below differ from those in the screen. Calls follow the shape of the dose curve; as a rule, active = well fitted inhibition curve with a large enough effect; inconclusive = small, poorly fitted or top-dose-only effect, or effect the other way; inactive = flat fitted curve, though single readings scatter. Potencies beside an inconclusive call are fits to weak or partial responses and may not hold up.
# Biological target: Cruzipain (Trypanosoma cruzi) (UniProt P25779)
# Experiment: qHTS Assay for Promiscuous and Specific Inhibitors of Cruzain (without detergent); also: nearly all actives have a fitted effect of over 40% in size;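 as to max response, negative = inhibition: plate controls were enzyme without inhibitor for no effect and buffer without enzyme for full effect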
# Settings: purified cruzain, Z-FR-AMC fluorescence, no detergent
# In short: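 Detergent-free condition (0.00005% Triton X-100) in acetate buffer pH 5.5 with DTT. 1.5 nM enzyme and compound were pre-mixed 15 min, then 2 uM Z-FR-AMC substrate added; reaction progress from fluorescence change between first and third reads (60 s).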
# Potency is read from the fitted curve at half-maximal effect; tags tell the direction and shape of the fitted curve.
# UniProt P25779, sequence (P25779 whole entry, looked up): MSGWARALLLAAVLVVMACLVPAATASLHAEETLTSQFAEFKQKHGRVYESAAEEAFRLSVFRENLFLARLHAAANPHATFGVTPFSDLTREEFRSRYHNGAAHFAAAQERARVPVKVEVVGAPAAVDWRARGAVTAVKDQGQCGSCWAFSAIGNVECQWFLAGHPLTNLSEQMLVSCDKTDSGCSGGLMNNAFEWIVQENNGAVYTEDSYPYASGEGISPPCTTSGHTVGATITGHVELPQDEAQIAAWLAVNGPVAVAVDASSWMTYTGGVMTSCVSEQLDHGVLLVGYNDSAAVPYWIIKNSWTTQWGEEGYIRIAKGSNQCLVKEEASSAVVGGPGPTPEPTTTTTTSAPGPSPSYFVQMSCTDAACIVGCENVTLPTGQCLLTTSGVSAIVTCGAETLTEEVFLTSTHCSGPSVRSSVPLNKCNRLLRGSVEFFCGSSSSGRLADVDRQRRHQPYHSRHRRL
Structure (SMILES),"max response, negative = inhibition",Potency
CCCC[C@@H]1C[C@H]1C(NC(=O)c1ccccc1)c1ccc(C(=O)OC)cc1 (stereo not given in full),inactive: 1.43%,–
O=C(Oc1ccccc1)N1CCC2(CC1)CCN(c1ccccc1)CC2,inactive: -1.84%,–
CCCCc1nn2c(=O)cc(COC(=O)COc3ccc(C)cc3)nc2s1,inactive: 0.324%,–
CCc1ccc(CNC(=O)c2ccc3c(c2)nc2n3CCC(C)C2)cc1 (stereo not given),inactive: -0.843%,–
CCC(C)Oc1cccc(OCCCCN2C(=O)NC(C)(C)C2=O)c1 (stereo not given),–,"inconclusive: 31.6 µM [activator, single point]"
CCOc1ccc(C(=O)NCc2ccc3c(c2)CCN3C(=O)c2ccccc2)cc1,–,"inconclusive: 39.8 µM [activator, single point]"
CC(C)c1nnc(NC(=O)CCS(=O)(=O)c2nc(-c3cccs3)cc(C(F)(F)F)n2)s1,–,"inconclusive: 25.1 µM [activator, single point]"
Cc1cc(C)nc(NS(=O)(=O)c2ccc(N=Cc3c(C)[nH]n(-c4ccccc4)c3=O)cc2)n1,–,"inconclusive: 39.8 µM [activator, single point]"
COc1cccc(Cn2c(=O)cc(C)c3c(C)nn(-c4ccc(C)cc4)c32)c1,inactive: -7.16%,–
COc1ccc(-c2cc(=O)c3c(OC)c(OC)c(OC)c(OC)c3o2)cc1OC,–,"inconclusive: 39.8 µM [activator, single point]"
O=C(NC12CC3CC(CC(C3)C1)C2)c1ccc(COc2ccc(Cl)cc2[N+](=O)[O-])o1,–,"inconclusive: 25.1 µM [inhibitor, single point]"
CCOc1ccc(C(=O)Nc2ccc(NC(=O)c3ccco3)c(Cl)c2)cc1Cl,–,"inconclusive: 31.6 µM [inhibitor, single point]"
CC(OC(=O)c1ccccc1Br)C(=O)Nc1nc(-c2cccc([N+](=O)[O-])c2)cs1 (stereo not given),–,"inconclusive: 39.8 µM [inhibitor, single point]"
Cc1c(Cl)cccc1NC(=O)c1cc2sccc2n1Cc1ccc(F)cc1,–,"inconclusive: 39.8 µM [inhibitor, single point]"
CCCc1nn2c(N)c(/C=C3\C=Nc4ccccc43)c(=O)nc2s1,–,"inconclusive: 31.6 µM [activator, single point]"
Cc1c(C(=O)Nc2ccc(-c3nc4cc(Cl)ccc4o3)cc2)oc2ccccc12,inactive: 7.86%,–
O=C(COc1ccc(Cl)cc1Cl)N1CCCN(C(=O)COc2ccc(Cl)cc2Cl)CC1,–,"inconclusive: 25.1 µM [activator, single point]"
COc1cc2oc(=O)c(CC(=O)NCc3ccc(OC)c(OC)c3)c(C)c2cc1Cl,inactive: 6.14%,–
Cc1ccc(C2C3=C(CC(C)(C)CC3=O)NC3=C2C(=O)c2ccccc23)cc1 (stereo not given),inactive: -0.214%,–
Cc1nn(CC(=O)NCC(C)c2ccccc2)c(=O)c2cc3ccccc3n12 (stereo not given),inactive: -8.8%,–
CC1(C)O[C@@H]2C[C@H]3[C@H]4C[C@H](F)C5=CC(=O)C=C[C@@]5(C)[C@@H]4[C@H](O)C[C@]3(C)[C@]2(C(=O)CO)O1,inactive: -9.39%,–
CC(=O)c1ccc(NC(=O)c2nc(-c3ccccc3)n(-c3ccccc3Cl)n2)cc1,inactive: -14.5%,–

Structure (SMILES),"max response, negative = inhibition",Potency
CCN(C(=O)COC(=O)c1cccnc1Nc1cccc(C(F)(F)F)c1)C1CCS(=O)(=O)C1 (stereo not given),–,"inconclusive: 25.1 µM [activator, partial curve]"
Clc1cccc(N2CCN(c3c4c(nc5nncn35)CCC4)CC2)c1,inactive: 11.2%,–
Cn1c(C(=O)NCCN2CCOCC2)cc2c(=O)n(C)c3ccccc3c21,–,"inconclusive: 12.6 µM [inhibitor, partial curve]"
N#Cc1ccccc1Cn1c(SCC(=O)Nc2ccc(F)cc2)nc2ccccc21,–,"inconclusive: 39.8 µM [activator, single point]"
O=C(NCc1ccc2c(c1)OCO2)C1CCN(c2ccc(S(=O)(=O)N3CCCC3)cc2)CC1,–,active: 25.1 µM
O=C(Nc1nnc(S(=O)(=O)N2CCCCCC2)s1)c1cccc(Br)c1,inactive: 6.01%,–
O=C1C2C3C=CC(C3=C(c3ccccc3)c3ccccc3)C2C(=O)N1CCO (stereo not given),–,"inconclusive: 39.8 µM [activator, single point]"
CCNC(=S)NNC(=O)c1cc(Br)cs1,inactive: -1.44%,–
CC(NC(=O)/C(C#N)=C/c1cn(-c2ccccc2)nc1-c1ccc(F)cc1)c1ccccc1 (stereo not given),–,"inconclusive: 39.8 µM [inhibitor, single point]"
Cc1cccc(N2CCN(C(=O)Cn3ncc4c3-c3ccccc3OC4)CC2)c1C,–,"inconclusive: 39.8 µM [activator, single point]"
COc1cc2cc(C(c3nnnn3C3CCCC3)N3CCc4ccccc43)c(=O)[nH]c2cc1OC (stereo not given),–,"inconclusive: 25.1 µM [activator, partial curve]"
COc1ccc(CCNC(=O)c2ccc3c(c2)c(C)c(C)n3Cc2ccccc2)c(OC)c1OC,–,"inconclusive: 31.6 µM [inhibitor, single point]"
Cc1nc(NC(=O)/C=C/c2ccccc2)sc1C(=O)Nc1ccccc1Cl,–,active: 10 µM
O=C(c1cc(C(F)(F)F)cc(C(F)(F)F)c1)N1CCC2(CC1)CCN(c1ncccn1)CC2,–,"inconclusive: 31.6 µM [activator, single point]"
Cc1ccc(-c2nnc(-c3ccc(NC(=O)c4ccco4)cc3)o2)cc1,–,"inconclusive: 25.1 µM [activator, single point]"
CC(=O)/C=C\C1[C@]2(C)CCCC(C)(C)C2CC[C@@]1(C)O (stereo not given in full),inactive: 16.2%,–
Cc1cccc(C(=O)N(Cc2ccco2)Cc2ccccc2F)c1,inactive: -1.64%,–
CC1CCCCN1C(=O)CSc1n[nH]c(-c2ccccc2)n1 (stereo not given),inactive: -4.98%,–
O=C(CN1CCOCC1)Nc1c2c(nc3ccccc13)N(Cc1ccccc1)CC2,inactive: -1.33%,–
CN(C)S(=O)(=O)c1cccc(NC(=O)COC(=O)c2cccc(S(=O)(=O)N3CCc4ccccc4C3)c2)c1,–,"inconclusive: 31.6 µM [inhibitor, single point]"
CCc1ccc(C2C(C(=O)Nc3ccc(Cl)cc3)=C(C)Nc3ncnn32)cc1 (stereo not given),–,"inconclusive: 25.1 µM [activator, single point]"
O=C(NCC1OCCc2ccccc21)c1ccc(NC(=O)c2cccc(Br)c2)cc1 (stereo not given),–,"inconclusive: 39.8 µM [inhibitor, single point]"

Structure (SMILES),"max response, negative = inhibition",Potency
CCN(CC)S(=O)(=O)c1cccc(NC(=O)C2SC(=Nc3ccc(C)cc3C)C(C(=O)NC(C)COC)=C2N)c1 (stereo not given),inactive: -11.2%,–
Cc1ccc(NC(=O)Cn2c(=O)oc3cc(S(=O)(=O)N4CCC(C)CC4)ccc32)cc1Cl,–,"inconclusive: 3.98 µM [inhibitor, single point]"
c1ccc2oc(C3=NNC(=NC4CC4)SC3)cc2c1,–,active: 15.8 µM
CCCCCCCCCCSc1n[nH]c(NC(C)=O)n1,–,"inconclusive: 39.8 µM [inhibitor, single point]"
CCC(=O)Nc1ccccc1-c1nc2ccccc2n(C(C)C(=O)Nc2ccc(OC)cc2)c1=O (stereo not given),–,"inconclusive: 39.8 µM [activator, single point]"
O=C(O)c1ccc(N2C(=O)c3[nH]nc(-c4ccccc4)c3C2c2cccc(F)c2)cc1 (stereo not given),inactive: -0.401%,–
COc1cc2[nH]c(=O)n(Cc3ccccc3Cl)c(=O)c2cc1OC,–,"inconclusive: 39.8 µM [inhibitor, single point]"
COc1ccc(/C=C(/CC(=O)NCc2ccc(Cl)cc2)c2nc3ccccc3s2)cc1,–,active: 31.6 µM
COc1ccc(C)cc1S(=O)(=O)NCC(c1ccc(N(C)C)cc1)N1CCc2ccccc21 (stereo not given),–,"inconclusive: 31.6 µM [inhibitor, single point]"
CC(/C=C/C=C(C)/C=C/C(=O)O)=C\C=C\C=C(C)\C=C\C=C(C)\C=C\C(=O)O,–,"inconclusive: 20 µM [activator, partial curve]"
Cc1ccc(Cl)cc1NC(=O)CCCN1C(=O)CCn2nc(-c3cn(C)c4ccccc34)cc21,–,"inconclusive: 20 µM [activator, partial curve, poor fit]"
CCc1ccc(OCC(=O)Nc2ccc(-c3cc4ccccc4oc3=O)c(OC)c2)cc1,–,"inconclusive: 39.8 µM [inhibitor, single point]"
OC(COc1ccc2ccccc2c1)Cn1ccnc1 (stereo not given),–,"inconclusive: 2 µM [inhibitor, partial curve, poor fit]"
COCC(=O)N1CCC2(CCCN(Cc3ccccc3OC)C2)CC1,inactive: 0.864%,–
COc1ccccc1C(=O)Nc1cc(-c2ccc(C)cc2)no1,inactive: 3.76%,–
CCOc1ccc2nc(/N=C/c3nc(-c4ccccc4)oc3O)sc2c1,–,"inconclusive: 39.8 µM [inhibitor, single point]"
Cn1c(=O)[nH]c(=O)c2c1nc(CN1CCN(c3ccc(F)cc3)CC1)n2CCc1ccccc1,–,"inconclusive: 20 µM [activator, partial curve]"
CC(C)(C)NC(=O)NC(=O)COC(=O)c1nc(-c2ccccc2)n(-c2cccc(C(F)(F)F)c2)n1,–,"inconclusive: 31.6 µM [activator, partial curve]"
COC(=O)c1c(NC(=O)CSc2nc3ccccc3c(=O)n2-c2ccccc2)sc(C)c1C,–,active: 12.6 µM
C/C(=N\N=C(/N)SC1CC(=O)N(c2ccc(Cl)cc2)C1=O)c1cccs1 (stereo not given),inactive: -4.15%,–
O=C(O)[C@H]1CC=CC[C@@H]1C(=O)Nc1cccc(O)c1,–,"inconclusive: 1.58 µM [activator, single point]"
